# From the supplement of paper PMC3334620
# The full ranking holds about 33,000 sequences; the median of “E-score (-0.5 to 0.5)” is about -0.041, and the highest 2% start at about 0.37. The list shows a part of the results.
# Target: T1, Ecm22 (UniProt Q05958)
# T1 sequence: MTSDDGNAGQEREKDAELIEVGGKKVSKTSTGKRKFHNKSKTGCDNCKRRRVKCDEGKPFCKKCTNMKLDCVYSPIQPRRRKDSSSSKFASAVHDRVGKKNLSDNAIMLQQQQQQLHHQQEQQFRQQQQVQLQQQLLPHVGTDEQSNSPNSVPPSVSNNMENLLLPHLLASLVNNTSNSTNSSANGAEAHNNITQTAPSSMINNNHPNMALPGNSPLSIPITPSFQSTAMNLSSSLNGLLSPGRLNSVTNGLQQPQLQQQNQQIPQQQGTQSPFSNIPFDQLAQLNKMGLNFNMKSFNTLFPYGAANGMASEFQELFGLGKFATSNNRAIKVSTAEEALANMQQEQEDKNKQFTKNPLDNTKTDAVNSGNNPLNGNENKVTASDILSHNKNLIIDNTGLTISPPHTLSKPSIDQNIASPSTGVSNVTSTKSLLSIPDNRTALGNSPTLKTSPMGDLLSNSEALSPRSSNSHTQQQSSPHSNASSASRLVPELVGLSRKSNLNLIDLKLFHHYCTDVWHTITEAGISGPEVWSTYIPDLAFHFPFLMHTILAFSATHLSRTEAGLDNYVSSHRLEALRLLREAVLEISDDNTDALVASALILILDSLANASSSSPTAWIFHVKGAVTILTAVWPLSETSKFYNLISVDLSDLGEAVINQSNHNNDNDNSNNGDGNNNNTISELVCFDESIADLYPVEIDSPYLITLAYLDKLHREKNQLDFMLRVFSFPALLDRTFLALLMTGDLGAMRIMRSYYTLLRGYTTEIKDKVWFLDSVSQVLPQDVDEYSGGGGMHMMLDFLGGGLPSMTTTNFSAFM
# Assay: PBM E-score (8-mer binding enrichment) (E-score (-0.5 to 0.5)); higher = stronger / more preferred TF binding; most listed sequences are background and not binding sites
# Settings: protein concentration: 200 nM; construct: GST-full length
# Method in brief: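 E-scores (a modified Wilcoxon-Mann-Whitney statistic) were assigned by the Universal PBM Analysis Suite to every ungapped eight-base word pooled with its reverse complement. The input came from universal all-10-mer Agilent arrays made double-stranded by primer extension and probed with GST-tagged yeast transcription factors at about 100-200 nM. Fluorescent anti-GST detected bound protein, and masliner normalised the scans.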
row,Sequence,PBM E-score
1,CTCTTCCA,-0.0818
2,ACATTATA,0.0164
3,CACGGGGA,-0.216
4,ATTACAAG,-0.158
5,ATAACGGG,-0.0278
6,TTGATAAA,0.0337
7,GACAAGTC,0.0831
8,ATGAATCA,-0.0528
9,CCGTATCA,0.354
10,AGGACGCC,-0.0366
11,CTAATCAA,-0.195
12,CGTCTAAC,-0.0542
13,ATTAAGGC,-0.102
14,CACTTTAC,0.132
15,CAGCGAAA,0.116
16,ATGGGGTG,-0.285
17,GGTTACGA,0.381
18,GTGGCCTA,-0.134
19,CCCTTTCA,-0.267
20,GGGTGGCA,-0.246
21,GGTCCCAC,0.0362
22,AGACGCGC,0.115
23,CCAGGCGG,-0.0617
24,CGACCCGA,0.198
25,AAGAATGT,-0.104

row,Sequence,PBM E-score
1,AGGTCGAA,-0.0216
2,CATACACG,0.142
3,CTGCAGGA,-0.245
4,AGGCGGTA,-0.00409
5,CGAGCTCA,0.266
6,CAGGTAAG,0.0463
7,CCATAAAC,0.105
8,GTAAGCGA,0.335
9,GAATGACA,-0.325
10,TCCGAGAA,0.265
11,AATAGCGT,0.0126
12,AAGGGCAG,-0.243
13,ACAGTAAA,0.0596
14,GGATTGGA,-0.12
15,CGACTTAC,0.184
16,GGCAATTA,-0.121
17,GAGTGACC,0.0319
18,CCCACCTA,-0.333
19,TATAACGA,0.278
20,ATCGGCTA,0.0697
21,ACGAGTGC,0.319
22,ACTAAACC,-0.00061
23,CAGAATCC,-0.0929
24,CCGTTGAA,-0.0547
25,ATGGTTAC,0.0519

row,Sequence,PBM E-score
1,CGCCACCA,-0.118
2,GCGTAACC,-0.0614
3,CATATAGC,0.0216
4,GTCGCCAC,0.0996
5,AAGTAAAC,0.294
6,ATGGATAC,0.038
7,AAACAAAG,-0.087
8,TCTGGTAA,0.0285
9,AGAACTCT,-0.12
10,GTACCGAC,0.252
11,CGTGGCAA,-0.281
12,TCATTTAA,-0.172
13,CGATAGTC,0.11
14,CCACACCA,-0.0379
15,GAGAGGCA,-0.0708
16,AGGCACCG,0.0118
17,ATACCGGC,0.0527
18,CTGTTTAA,-0.194
19,AATCGCAA,0.138
20,CACATCTG,-0.134
21,CTTTCGGC,-0.298
22,CCTTCGTA,0.453
23,TAAGCTAA,0.042
24,AGTACGGG,0.196
25,CTGGGCTC,-0.0303

row,Sequence,PBM E-score
1,CAATGGAC,0.0188
2,CTCGGGCC,-0.0196
3,ACTTAACT,-0.188
4,CGAGTCCA,0.0533
5,CCCAGACC,-0.144
6,GAGCGAAA,0.272
7,ACCACAAC,0.0744
8,ATTTAGCG,0.115
9,ACTGCATA,-0.00908
10,GACTGCTA,-0.279
11,CCGCCCAG,-0.034
12,CACACTAA,0.0795
13,GACCGTGC,-0.114
14,AAGGGTGA,-0.00576
15,CCGTCTCC,0.0539
16,CAGGAGCG,0.0742
17,GTGAGCGA,0.191
18,AGGCTGAA,-0.27
19,AGAGACCC,-0.19
20,ACTCGTAT,0.479
21,CAGGCATA,-0.129
22,GATAGCAC,-0.103
23,TCCCACCA,-0.122
24,GAAGCCGC,-0.0184
25,CGGAACAG,0.0524

row,Sequence,PBM E-score
1,GACTGCTC,-0.0681
2,AAGTACGA,0.448
3,GGGACGGA,-0.304
4,AGTGCTCC,-0.101
5,CGAACCAC,0.234
6,AACCGATT,0.233
7,ATGTATCA,0.0493
8,AAAATGTT,-0.103
9,GTAAATCA,0.153
10,GCTGGACC,-0.235
11,GAGTAATC,-0.0897
12,AGAATCAG,-0.158
13,CACGCATA,-0.102
14,AGAATCTG,-0.0251
15,GCTAAAAA,-0.0885
16,ACGTCTTA,0.116
17,CAGAGTAC,0.013
18,TAACTAAA,-0.149
19,GACGGGCC,-0.0352
20,CGCTGCCG,-0.159
21,CCGCGGCC,0.14
22,AGCGTTTA,0.168
23,TGCCTAAA,-0.0869
24,CAACGCTG,0.0478
25,ACTAGGTG,-0.192

row,Sequence,PBM E-score
1,GTCCGCTA,0.133
2,GAAGTGAA,-0.0727
3,AGCGCCCA,-0.338
4,GCGCCGCA,-0.0484
5,ATTAGGTA,0.045
6,GCGCATAA,0.0307
7,ATCTCCCA,-0.06
8,GCATAGGA,-0.0566
9,ATCTTACC,0.0694
10,AATATCCT,-0.0852
11,CCGGTCAG,-0.175
12,ATCCGGTC,0.0214
13,GTCCATAA,-0.283
14,GGGGCAAA,-0.189
15,GCCGAAGA,0.202
16,GCCTAGCA,-0.213
17,ACTGCAAC,-0.139
18,CATCTAAA,0.0553
19,GACATGTA,-0.0849
20,AAATGCCT,-0.168
21,GGGAGGAC,-0.128
22,ACCGAAGT,0.207
23,CGGACACA,-0.0508
24,ATGCCTCC,-0.151
25,CCCTCAGA,-0.169

row,Sequence,PBM E-score
1,GAACCCCC,-0.215
2,AATAGTCC,-0.216
3,AATTTCCT,-0.198
4,AGACTATA,0.151
5,CAGGATCC,-0.0144
6,CGCTTGCC,-0.041
7,CACGGACG,-0.0335
8,TTAGAGAA,-0.274
9,AGTAAACC,-0.0723
10,CAATTAAA,-0.018
11,CGACGTCA,0.104
12,CGTTTCAC,0.258
13,ACACGAAC,0.237
14,ATCGTCAT,0.0875
15,CACTAACA,-0.105
16,ACGACTGG,0.3
17,CCTGCCTC,0.142
18,CCCGTACG,0.402
19,CCTTCAAC,-0.276
20,CGGGGCAA,-0.0872
21,GCTTGGCC,-0.0878
22,CTAGAATC,0.00647
